Measurements as given in article PMC11538714.
Results are given in words; binding and its absence hold for the method and conditions named. For part of these data: Binding seen in cells or lysates may run through a third protein. Some results given as binding are weak or reduced against the parent protein; the word gives no strength.

Chains of the proteins cited; added tags and fusions are not shown.
UniProt Q6PF93: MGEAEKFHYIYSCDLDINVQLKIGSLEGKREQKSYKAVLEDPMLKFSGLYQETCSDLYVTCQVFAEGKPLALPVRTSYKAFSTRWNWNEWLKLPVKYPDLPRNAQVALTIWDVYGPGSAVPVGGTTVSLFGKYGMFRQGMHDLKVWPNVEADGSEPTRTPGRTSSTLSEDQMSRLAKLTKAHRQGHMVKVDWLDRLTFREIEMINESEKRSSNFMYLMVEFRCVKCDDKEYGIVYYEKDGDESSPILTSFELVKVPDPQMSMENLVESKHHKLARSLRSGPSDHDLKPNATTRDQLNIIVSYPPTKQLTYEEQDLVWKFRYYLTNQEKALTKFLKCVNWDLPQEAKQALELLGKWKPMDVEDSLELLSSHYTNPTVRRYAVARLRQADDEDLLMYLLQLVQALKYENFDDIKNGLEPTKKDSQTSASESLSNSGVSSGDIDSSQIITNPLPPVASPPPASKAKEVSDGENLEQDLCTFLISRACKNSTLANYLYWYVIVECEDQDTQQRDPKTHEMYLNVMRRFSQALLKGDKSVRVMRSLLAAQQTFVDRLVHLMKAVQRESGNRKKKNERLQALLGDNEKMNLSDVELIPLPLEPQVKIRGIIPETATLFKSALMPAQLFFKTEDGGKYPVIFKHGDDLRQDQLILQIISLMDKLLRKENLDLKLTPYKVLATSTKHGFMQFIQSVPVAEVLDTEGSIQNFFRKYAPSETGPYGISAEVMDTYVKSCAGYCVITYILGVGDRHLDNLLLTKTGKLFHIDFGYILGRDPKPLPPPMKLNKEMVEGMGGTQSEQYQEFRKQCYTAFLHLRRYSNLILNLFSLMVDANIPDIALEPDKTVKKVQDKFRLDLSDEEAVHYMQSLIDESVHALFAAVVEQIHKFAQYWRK
UniProt Q8NEB9: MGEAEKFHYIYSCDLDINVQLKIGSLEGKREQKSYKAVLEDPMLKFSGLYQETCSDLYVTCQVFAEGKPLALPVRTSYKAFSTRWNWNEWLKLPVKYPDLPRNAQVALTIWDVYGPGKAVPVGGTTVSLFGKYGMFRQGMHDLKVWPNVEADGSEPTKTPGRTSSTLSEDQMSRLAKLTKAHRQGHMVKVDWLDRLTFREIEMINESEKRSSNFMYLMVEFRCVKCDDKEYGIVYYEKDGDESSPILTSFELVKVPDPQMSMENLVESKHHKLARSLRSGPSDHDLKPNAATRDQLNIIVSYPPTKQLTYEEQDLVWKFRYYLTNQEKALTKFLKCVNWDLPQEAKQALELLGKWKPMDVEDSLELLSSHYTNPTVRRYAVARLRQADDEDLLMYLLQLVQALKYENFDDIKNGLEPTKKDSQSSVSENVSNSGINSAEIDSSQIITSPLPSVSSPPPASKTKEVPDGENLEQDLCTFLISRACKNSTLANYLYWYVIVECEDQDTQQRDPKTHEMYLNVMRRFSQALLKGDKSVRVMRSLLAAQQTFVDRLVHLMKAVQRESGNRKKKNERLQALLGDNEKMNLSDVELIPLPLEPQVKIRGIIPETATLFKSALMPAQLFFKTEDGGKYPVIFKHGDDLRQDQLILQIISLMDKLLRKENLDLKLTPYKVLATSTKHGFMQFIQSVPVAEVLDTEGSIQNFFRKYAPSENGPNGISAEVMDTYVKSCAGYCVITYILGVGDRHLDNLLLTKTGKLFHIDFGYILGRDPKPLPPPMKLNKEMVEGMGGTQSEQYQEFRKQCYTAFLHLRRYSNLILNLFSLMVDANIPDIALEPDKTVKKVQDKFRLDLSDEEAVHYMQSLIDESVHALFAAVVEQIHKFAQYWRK
UniProt Q92609: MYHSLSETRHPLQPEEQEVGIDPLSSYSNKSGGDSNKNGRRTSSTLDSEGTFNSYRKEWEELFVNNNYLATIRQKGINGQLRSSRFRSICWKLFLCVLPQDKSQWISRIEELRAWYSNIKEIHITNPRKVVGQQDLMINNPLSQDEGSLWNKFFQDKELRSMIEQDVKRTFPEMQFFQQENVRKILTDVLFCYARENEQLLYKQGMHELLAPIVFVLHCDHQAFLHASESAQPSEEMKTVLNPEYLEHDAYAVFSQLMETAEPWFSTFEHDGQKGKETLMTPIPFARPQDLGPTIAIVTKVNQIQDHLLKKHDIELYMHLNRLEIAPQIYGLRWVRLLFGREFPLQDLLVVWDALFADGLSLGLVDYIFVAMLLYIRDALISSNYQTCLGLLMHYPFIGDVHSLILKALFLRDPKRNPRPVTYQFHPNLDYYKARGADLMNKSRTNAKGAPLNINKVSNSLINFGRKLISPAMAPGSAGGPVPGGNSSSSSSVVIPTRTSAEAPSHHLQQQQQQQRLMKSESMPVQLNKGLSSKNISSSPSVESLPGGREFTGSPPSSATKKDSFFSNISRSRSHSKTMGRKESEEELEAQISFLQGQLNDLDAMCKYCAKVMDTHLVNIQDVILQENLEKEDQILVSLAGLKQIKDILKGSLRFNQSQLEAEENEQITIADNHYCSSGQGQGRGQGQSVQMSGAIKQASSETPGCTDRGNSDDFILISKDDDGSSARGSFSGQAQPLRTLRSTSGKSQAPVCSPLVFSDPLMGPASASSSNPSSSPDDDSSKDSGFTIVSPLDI

Key:
[1] = target: VPS34, endogenous in mouse oocytes (mouse (endogenous in oocytes)) (UniProt Q6PF93); test: co-IP; endogenous proteins in mouse oocytes (1600 oocytes), RIPA lysate; antibody overnight at 4 °C, protein-A/G beads; Western blot (Figure S5h)
[2] = target: VPS34-HA-GST fusion protein (UniProt Q6PF93); test: pull-down; about 100 µg VPS34-HA-GST (or HA-GST) immobilized on 50 µL glutathione agarose; about 100 µg His-RAB7 added, overnight at 4 °C; eluted with 10 mM glutathione in PBS pH 8.0; immunoblot; both purified
[3] = target: Vacuolar protein sorting 34 (VPS34), endogenous in 293T cells (human (endogenous in 293T)) (UniProt Q8NEB9); test: co-IP; endogenous protein interactions in 293T cells; RIPA lysate; antibody overnight at 4 °C, protein-A/G beads; Western blot (Figure S5f,g)
[4] = target: VPS26B, endogenous in 293T cells (human (endogenous in 293T)) (UniProt Q4G0F5); test: co-IP; endogenous proteins in control and Vps34 knockout (CRISPR-Cas9) 293T cells; RIPA lysate with protease inhibitor; 0.5 µg antibody (RAB7, TBC1D5, VPS26B, VPS26A or VPS35) overnight at 4 °C, protein-A/G beads 6 h at 4 °C, washed with cold PBS; Western blot
[5] = target: VPS26A, endogenous in 293T cells (human (endogenous in 293T)) (UniProt O75436); test: as above
[6] = target: TBC1 domain family member 5 (TBC1D5), endogenous in 293T cells (human (endogenous in 293T)) (UniProt Q92609); test: as above
[7] = target: RAS-related GTP-binding protein 7 (RAB7), endogenous in 293T cells (human (endogenous in 293T)) (UniProt P51149); test: as above

Question: For “RAB7, endogenous in mouse oocytes (from UniProt P51150 1-207)”, which binding [1] is on record?
Answer: binds

Question: For “RAB7-His protein (from UniProt P51150 1-207)”, which binding [2] is on record?
Answer: binds

Question: How did the binding [3] turn out when “RAS-related GTP-binding protein 7 (RAB7), endogenous in 293T cells (from UniProt P51149 1-207)” was run?
Answer: binds

Question: And the binding [4]?
Answer: no binding

Question: And the binding [5]?
Answer: binds

Question: What about the binding [6] of the same substance?
Answer: binds

Question: Which binding [4] does the source give for “TBC1 domain family member 5 (TBC1D5), endogenous in 293T cells (from UniProt Q92609 1-795)” here?
Answer: no binding

Question: What does the source list for “VPS26A, endogenous in 293T cells (from UniProt O75436 1-327)”?
Answer: binding [4]: no binding; binding [7]: binds
